# Test results from the supplement of paper PMC8728848.
# This is one part of the list.
# Columns and labels:
# Assay in all cases: glycan array binding signal (z-score within array); higher = stronger binding
# Conditions in all cases: glycan notation: IUPAC condensed, linker removed
# Fuc(a1-3)GlcNAc = molecular target: Fuc(a1-3)GlcNAc
# How it was run: (§1)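 The binding signal is a Z-score computed within each array. Data were drawn from 3228 arrays in the Consortium for Functional Glycomics database, restricted to those with a known protein sequence. Scores were averaged over arrays of the same protein sequence at different concentrations or buffers, and over linkers, and negative values can be taken as non-binding.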
# [1] = molecular target: Fuc(a1-3)[Gal(b1-4)]Glc6S
# How it was run: as §1
# [2] = molecular target: Fuc(a1-3)[Gal(b1-4)]GlcNAc
# How it was run: as §1
# [3] = molecular target: Fuc(a1-3)[Gal(b1-4)]GlcNAc(b1-2)Man
# How it was run: as §1
# [4] = molecular target: Fuc(a1-3)[Gal(b1-4)]GlcNAc(b1-2)Man(a1-3)[Fuc(a1-3)[Gal(b1-4)]GlcNAc(b1-2)Man(a1-6)]Man(b1-4)GlcNAc(b1-4)GlcNAc
# How it was run: as §1
# [5] = molecular target: Fuc(a1-3)[Gal(b1-4)]GlcNAc(b1-2)Man(a1-3)[Fuc(a1-3)[Gal(b1-4)]GlcNAc(b1-2)Man(a1-6)]Man(b1-4)GlcNAc(b1-4)[Fuc(a1-6)]GlcNAc
# How it was run: as §1
# [6] = molecular target: Fuc(a1-3)[Gal(b1-4)]GlcNAc(b1-3)Gal(b1-3)[Fuc(a1-4)]GlcNAc
# How it was run: as §1
# [7] = molecular target: Fuc(a1-3)[Gal(b1-4)]GlcNAc(b1-3)Gal(b1-4)[Fuc(a1-3)]GlcNAc
# How it was run: as §1
# [8] = molecular target: Fuc(a1-3)[Gal(b1-4)]GlcNAc(b1-3)Gal(b1-4)[Fuc(a1-3)]GlcNAc(b1-3)Gal(b1-4)[Fuc(a1-3)]GlcNAc
# How it was run: as §1
# [9] = molecular target: Fuc(a1-3)[Gal(b1-4)]GlcNAc(b1-3)GalNAc
# How it was run: as §1
# [10] = molecular target: Fuc(a1-3)[Gal(b1-4)]GlcNAc(b1-6)GalNAc
# How it was run: as §1
# [11] = molecular target: Fuc(a1-3)[Gal(b1-4)]GlcNAc(b1-6)[Gal(b1-3)GlcNAc(b1-3)]Gal(b1-4)Glc
# How it was run: as §1
# [12] = molecular target: Fuc(a1-3)[Gal(b1-4)]GlcNAc6S
# How it was run: as §1
# [13] = molecular target: Fuc(a1-3)[Gal3S(b1-4)]Glc
# How it was run: as §1
# [14] = molecular target: Fuc(a1-3)[Gal3S(b1-4)]GlcNAc
# How it was run: as §1
# [15] = molecular target: Fuc(a1-3)[Gal3S(b1-4)]GlcNAc6S
# How it was run: as §1
# [16] = molecular target: Fuc(a1-3)[GalNAc(b1-4)]GlcNAc
# How it was run: as §1
# [17] = molecular target: Fuc(a1-3)[GalNAc(b1-4)]GlcNAc6S
# How it was run: as §1
# Fuc(a1-4)GlcNAc = molecular target: Fuc(a1-4)GlcNAc
# How it was run: as §1
# Fuc(b1-3)GlcNAc = molecular target: Fuc(b1-3)GlcNAc
# How it was run: as §1
# Gal(a1-2)Gal = molecular target: Gal(a1-2)Gal
# How it was run: as §1
# Gal(a1-3)Gal = molecular target: Gal(a1-3)Gal
# How it was run: as §1
# Gal(a1-3)Gal(b1-3)GlcNAc = molecular target: Gal(a1-3)Gal(b1-3)GlcNAc
# How it was run: as §1
# [18] = molecular target: Gal(a1-3)Gal(b1-3)GlcNAc(b1-2)Man
# How it was run: as §1
# [19] = molecular target: Gal(a1-3)Gal(b1-3)GlcNAc(b1-2)Man(a1-3)[Gal(a1-3)Gal(b1-3)GlcNAc(b1-2)Man(a1-6)]Man(b1-4)GlcNAc(b1-4)GlcNAc
# How it was run: as §1
# [20] = molecular target: Gal(a1-3)Gal(b1-3)GlcNAc(b1-3)GalNAc
# How it was run: as §1
# [21] = molecular target: Gal(a1-3)Gal(b1-3)GlcNAc(b1-6)GalNAc
# How it was run: as §1
# [22] = molecular target: Gal(a1-3)Gal(b1-3)[Fuc(a1-4)]GlcNAc(b1-2)Man(a1-3)[Gal(a1-3)Gal(b1-3)[Fuc(a1-4)]GlcNAc(b1-2)Man(a1-6)]Man(b1-4)GlcNAc(b1-4)GlcNAc
# How it was run: as §1
# Gal(a1-3)Gal(b1-4)Glc = molecular target: Gal(a1-3)Gal(b1-4)Glc
# How it was run: as §1
# Gal(a1-3)Gal(b1-4)GlcNAc = molecular target: Gal(a1-3)Gal(b1-4)GlcNAc
# How it was run: as §1
# [23] = molecular target: Gal(a1-3)Gal(b1-4)GlcNAc(b1-2)Man
# How it was run: as §1
# [24] = molecular target: Gal(a1-3)Gal(b1-4)GlcNAc(b1-2)Man(a1-3)[Gal(a1-3)Gal(b1-4)GlcNAc(b1-2)Man(a1-6)]Man(b1-4)GlcNAc(b1-4)GlcNAc
# How it was run: as §1
# [25] = molecular target: Gal(a1-3)Gal(b1-4)GlcNAc(b1-3)GalNAc
# How it was run: as §1
# [26] = molecular target: Gal(a1-3)Gal(b1-4)GlcNAc(b1-6)GalNAc
# How it was run: as §1
# [27] = molecular target: Gal(a1-3)Gal(b1-4)[Fuc(a1-3)]GlcNAc
# How it was run: as §1
# [28] = molecular target: Gal(a1-3)Gal(b1-4)[Fuc(a1-3)]GlcNAc(b1-2)Man(a1-3)[Gal(a1-3)Gal(b1-4)[Fuc(a1-3)]GlcNAc(b1-2)Man(a1-6)]Man(b1-4)GlcNAc(b1-4)GlcNAc
# How it was run: as §1
# Gal(a1-3)GalNAc = molecular target: Gal(a1-3)GalNAc
# How it was run: as §1
# [29] = molecular target: Gal(a1-3)[Gal(a1-4)]Gal(b1-4)GlcNAc
# How it was run: as §1
# [30] = molecular target: Gal(a1-4)Gal(b1-3)GlcNAc(b1-2)Man(a1-3)[Gal(a1-4)Gal(b1-3)GlcNAc(b1-2)Man(a1-6)]Man(b1-4)GlcNAc(b1-4)GlcNAc
# How it was run: as §1
# Gal(a1-4)Gal(b1-4)Glc = molecular target: Gal(a1-4)Gal(b1-4)Glc
# How it was run: as §1
# Gal(a1-4)Gal(b1-4)GlcNAc = molecular target: Gal(a1-4)Gal(b1-4)GlcNAc
# How it was run: as §1
# [31] = molecular target: Gal(a1-4)Gal(b1-4)GlcNAc(b1-2)Man(a1-3)[Gal(a1-4)Gal(b1-4)GlcNAc(b1-2)Man(a1-6)]Man(b1-4)GlcNAc(b1-4)GlcNAc
# How it was run: as §1
# [32] = molecular target: Gal(a1-4)Gal(b1-4)GlcNAc(b1-3)Gal(b1-4)Glc
# How it was run: as §1
# Gal(a1-4)GlcNAc = molecular target: Gal(a1-4)GlcNAc
# How it was run: as §1
# Gal(a1-6)Glc = molecular target: Gal(a1-6)Glc
# How it was run: as §1
binder,measurement,setting,value
Si Bti9 1b-HA (Solanum lycopersicum) (protein) MFESRPRSVLSLGVFVILVYLSSVPLPVNSQCNRGCDLALASFYVWRGSNLTLISEMFSTSIADIVSYNNRDNIPNQDSVIAGTRINIPFRCDCLNDGEVLGHAFPYRVKSGDTYDLVARNYSDLTTAQWMMKFNSYPENNIPNTVNLSVVVNCSCGNSDVSKDFGLFVTYPVRAEDNLTSVASAANVSEDIIRRYNPAAVSILDIGQGIIYIPGRDRNGNFPPLPTSTDGLSGGAKAPLFFNPAFLYKVVELKLAGRSRTSGYPYDVPDYAGYPYDVPDYALEVLFQ,glycan array binding signal (z-score),Fuc(a1-3)GlcNAc,-0.298
same,glycan array binding signal (z-score),[1],0.17
same,glycan array binding signal (z-score),[2],-0.337
same,glycan array binding signal (z-score),[3],-0.271
same,glycan array binding signal (z-score),[4],-0.379
same,glycan array binding signal (z-score),[5],-0.099
same,glycan array binding signal (z-score),[6],-0.028
same,glycan array binding signal (z-score),[7],0.109
same,glycan array binding signal (z-score),[8],-0.223
same,glycan array binding signal (z-score),[9],0.058
same,glycan array binding signal (z-score),[10],0.125
same,glycan array binding signal (z-score),[11],-0.061
same,glycan array binding signal (z-score),[12],-0.621
same,glycan array binding signal (z-score),[13],-0.055
same,glycan array binding signal (z-score),[14],-0.246
same,glycan array binding signal (z-score),[15],0.077
same,glycan array binding signal (z-score),[16],-0.293
same,glycan array binding signal (z-score),[17],0.018
same,glycan array binding signal (z-score),Fuc(a1-4)GlcNAc,-0.444
same,glycan array binding signal (z-score),Fuc(b1-3)GlcNAc,-0.422
same,glycan array binding signal (z-score),Gal(a1-2)Gal,0.79
same,glycan array binding signal (z-score),Gal(a1-3)Gal,-0.361
same,glycan array binding signal (z-score),Gal(a1-3)Gal(b1-3)GlcNAc,9.57
same,glycan array binding signal (z-score),[18],-0.219
same,glycan array binding signal (z-score),[19],0.622
same,glycan array binding signal (z-score),[20],0.207
same,glycan array binding signal (z-score),[21],-0.449
same,glycan array binding signal (z-score),[22],0.896
same,glycan array binding signal (z-score),Gal(a1-3)Gal(b1-4)Glc,0.083
same,glycan array binding signal (z-score),Gal(a1-3)Gal(b1-4)GlcNAc,1.28
same,glycan array binding signal (z-score),[23],0.595
same,glycan array binding signal (z-score),[24],-0.152
same,glycan array binding signal (z-score),[25],-0.182
same,glycan array binding signal (z-score),[26],-0.333
same,glycan array binding signal (z-score),[27],-0.48
same,glycan array binding signal (z-score),[28],0.923
same,glycan array binding signal (z-score),Gal(a1-3)GalNAc,-0.344
same,glycan array binding signal (z-score),[29],-0.243
same,glycan array binding signal (z-score),[30],0.069
same,glycan array binding signal (z-score),Gal(a1-4)Gal(b1-4)Glc,-0.118
same,glycan array binding signal (z-score),Gal(a1-4)Gal(b1-4)GlcNAc,-0.314
same,glycan array binding signal (z-score),[31],-0.211
same,glycan array binding signal (z-score),[32],-0.274
same,glycan array binding signal (z-score),Gal(a1-4)GlcNAc,-0.212
same,glycan array binding signal (z-score),Gal(a1-6)Glc,1.13
